From PMC4059916 come the findings set out here.

Sequences of proteins named here, by UniProt entry; tags and fusion partners are left off. Residues count along the entry.
UniProt Q4G0F5: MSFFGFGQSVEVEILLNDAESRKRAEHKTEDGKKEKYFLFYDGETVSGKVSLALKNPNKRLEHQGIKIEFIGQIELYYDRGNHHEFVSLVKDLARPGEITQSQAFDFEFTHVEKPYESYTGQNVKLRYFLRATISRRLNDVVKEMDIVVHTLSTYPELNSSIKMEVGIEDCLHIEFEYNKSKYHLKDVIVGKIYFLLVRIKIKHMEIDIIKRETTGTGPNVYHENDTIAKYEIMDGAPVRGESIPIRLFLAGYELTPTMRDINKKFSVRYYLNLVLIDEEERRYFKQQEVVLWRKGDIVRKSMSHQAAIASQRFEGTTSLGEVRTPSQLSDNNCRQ
UniProt P51809, residues 2-188: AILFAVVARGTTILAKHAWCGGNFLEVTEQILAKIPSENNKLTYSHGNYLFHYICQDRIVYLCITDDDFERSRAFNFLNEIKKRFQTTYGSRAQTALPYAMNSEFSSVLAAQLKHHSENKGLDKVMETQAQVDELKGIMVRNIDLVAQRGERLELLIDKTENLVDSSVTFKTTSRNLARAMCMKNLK

Test [1] has as its target VARP1-1050His10, wild type (human) (UniProt Q96NW4). The test can be described thus: pull-down; GST-VPS29 or GST as bait with combinations of VARP-His10, Rab32 and VAMP7 cytoplasmic domain; samples western blotted for Rab32 and VAMP7; both purified. (In general: Immunoblotting shows a protein as a band on a membrane.)
Test [2] deals with BD-VPS26B (yeast two-hybrid) (UniProt Q4G0F5). The experiment in a line: two-hybrid; pGBT9 (BD) and pGAD-C (AD) vectors, HF7c reporter strain; growth on plates lacking histidine indicates interaction.

No constants are given. Whether binding was seen depends on the method and setting. Some binding calls cover weakened binding; strength is not graded here.

“VAMP7 cytoplasmic domain (CD) (from UniProt P51809 2-188) (domain or fragment)”: the binding result in test [1] was “binds”.

For the substance “AD-VARP, full length (yeast two-hybrid) (from UniProt Q96NW4 1-1050)”, the binding entry in test [2] is reported as “no binding”.
